{"source": "paper PMC4336329", "about": "(PLoS ONE, 2015)", "note": "The campaign covered roughly 310,000 compounds. About 14,000 (4.5%) showed an effect of 50% or more. The effect is printed as a negative number. Some of the results follow.", "data": [{"target": "human ether-à-go-go-related gene (hERG) potassium channel (human, UniProt Q12809)", "sequence (Q12809 whole entry, looked up)": "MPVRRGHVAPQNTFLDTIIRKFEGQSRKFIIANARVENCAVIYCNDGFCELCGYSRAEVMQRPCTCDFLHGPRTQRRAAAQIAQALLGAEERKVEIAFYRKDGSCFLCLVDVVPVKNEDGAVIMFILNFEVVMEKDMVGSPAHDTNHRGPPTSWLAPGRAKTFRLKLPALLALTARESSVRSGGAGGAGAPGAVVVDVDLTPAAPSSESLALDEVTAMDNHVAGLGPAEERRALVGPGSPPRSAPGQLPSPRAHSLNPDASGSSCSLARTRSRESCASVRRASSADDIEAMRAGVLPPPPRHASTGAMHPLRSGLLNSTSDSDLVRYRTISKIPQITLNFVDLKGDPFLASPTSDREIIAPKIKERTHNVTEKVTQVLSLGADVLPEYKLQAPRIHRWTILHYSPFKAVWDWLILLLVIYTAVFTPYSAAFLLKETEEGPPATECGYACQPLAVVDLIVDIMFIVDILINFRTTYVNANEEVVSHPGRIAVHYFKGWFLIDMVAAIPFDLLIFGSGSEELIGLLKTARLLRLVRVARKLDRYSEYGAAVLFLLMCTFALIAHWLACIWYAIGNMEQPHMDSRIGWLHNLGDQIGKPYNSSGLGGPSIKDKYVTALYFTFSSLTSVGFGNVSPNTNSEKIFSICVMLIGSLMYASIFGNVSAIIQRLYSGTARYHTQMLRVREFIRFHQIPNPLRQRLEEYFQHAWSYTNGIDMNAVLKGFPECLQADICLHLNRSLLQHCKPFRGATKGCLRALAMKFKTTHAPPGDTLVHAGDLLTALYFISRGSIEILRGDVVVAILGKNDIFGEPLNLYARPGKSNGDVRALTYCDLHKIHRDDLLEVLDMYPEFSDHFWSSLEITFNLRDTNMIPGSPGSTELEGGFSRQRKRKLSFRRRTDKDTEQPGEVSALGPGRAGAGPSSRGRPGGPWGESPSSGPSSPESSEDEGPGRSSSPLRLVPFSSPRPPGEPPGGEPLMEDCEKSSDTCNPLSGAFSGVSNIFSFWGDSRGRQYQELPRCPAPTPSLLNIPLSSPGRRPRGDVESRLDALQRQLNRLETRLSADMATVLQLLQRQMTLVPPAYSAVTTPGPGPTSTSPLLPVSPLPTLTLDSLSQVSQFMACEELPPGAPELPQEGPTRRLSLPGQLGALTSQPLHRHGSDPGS", "assay": "primary screen, population patch clamp on CHO cells stably expressing hERG", "units": {"hERG current change (%, negative = inhibition) at 10uM": "%"}, "values": [{"compound": "CC(NC(=O)c1ccco1)C1COc2ccccc2O1", "note": "(centres unmarked);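 note: peak tail current of the secondary pulse compared with the same well before compound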", "hERG current change (%, negative = inhibition) at 10uM": 5.35}, {"compound": "O=C(Nc1nc(C2C3CC4CC(C3)CC2C4)cs1)c1cc2cc([N+](=O)[O-])ccc2oc1=O", "note": "(centres unmarked)", "hERG current change (%, negative = inhibition) at 10uM": 4.65}, {"compound": "COc1ccc(CC(=O)N(CCN(C)C)CC2CCCN(Cc3ccccc3F)C2)cc1", "note": "(centres unmarked)", "hERG current change (%, negative = inhibition) at 10uM": -26.3}, {"compound": "O=c1cc2c(nn1Cc1ccc(Cl)cc1)-c1ccccc1CC2", "hERG current change (%, negative = inhibition) at 10uM": -13.6}, {"compound": "Clc1ccc2c(c1)C(c1ccccc1Cl)=NCc1nnc(N3CCN(CCSc4ccccc4)CC3)n1-2.O.O=C(O)/C=C/C(=O)O", "hERG current change (%, negative = inhibition) at 10uM": -66.5}, {"compound": "CCN(Cc1ccccc1)C(=O)CCc1nc(CN2CCN(C(=O)c3ccc([N+](=O)[O-])cc3)CC2)no1", "hERG current change (%, negative = inhibition) at 10uM": -64.2}, {"compound": "O=C(Nc1cccc([N+](=O)[O-])c1)N1CCN(c2ccccc2)CC1", "hERG current change (%, negative = inhibition) at 10uM": -38.7}, {"compound": "Cn1c(=O)cc(SCC(=O)N2CCC3(CC2)OCCO3)c2ccc(Cl)cc21", "hERG current change (%, negative = inhibition) at 10uM": -45.3}, {"compound": "COc1ccc(NC(=O)CSc2ncnc3[nH]ncc23)cc1", "hERG current change (%, negative = inhibition) at 10uM": 1.95}, {"compound": "O=C(/C=C/c1ccccc1)N1CCC(Cc2ccccc2)CC1", "hERG current change (%, negative = inhibition) at 10uM": -24}, {"compound": "COc1ccc(S(=O)(=O)N2CCCC(C(=O)N3CCOCC3)C2)cc1C", "note": "(centres unmarked)", "hERG current change (%, negative = inhibition) at 10uM": -1.24}, {"compound": "Cn1c(=O)n(C)c2cc(S(=O)(=O)NCc3ccccc3)ccc21", "hERG current change (%, negative = inhibition) at 10uM": 6.21}, {"compound": "COc1cccc(CNCc2ccccn2)c1OC", "hERG current change (%, negative = inhibition) at 10uM": 5.32}, {"compound": "CCOC(=O)CSCCOc1ccc(C=C2C(=O)NC(=O)NC2=O)cc1OC", "hERG current change (%, negative = inhibition) at 10uM": 16.4}, {"compound": "CCOC(=O)c1[nH]c(C)c(C(=O)N2CCCC(Nc3ccc(C)c(C)c3)C2)c1C", "note": "(centres unmarked)", "hERG current change (%, negative = inhibition) at 10uM": -4.07}, {"compound": "COc1cc(CNc2ccc3[nH]c(=O)[nH]c3c2)ccc1OCC(=O)NC(C)(C)C", "hERG current change (%, negative = inhibition) at 10uM": 9.86}, {"compound": "CNc1nc(Nc2ccc(C)c(Cl)c2)c2cnn(C)c2n1", "hERG current change (%, negative = inhibition) at 10uM": 15.5}, {"compound": "Cc1cc(Br)ccc1OCC(=O)NNC(=O)c1ccc(NC(=O)C2CC2)cc1", "hERG current change (%, negative = inhibition) at 10uM": 3.71}, {"compound": "COc1ccc(N(C(=O)c2ccncc2)S(=O)(=O)c2cccs2)cc1", "hERG current change (%, negative = inhibition) at 10uM": -13.3}, {"compound": "O=C(/C=C/c1ccccc1)NCC(=O)N/N=C\\c1cccnc1", "hERG current change (%, negative = inhibition) at 10uM": -10.9}, {"compound": "COc1cccc(N(CC(=O)NC2CCCC2)C(=O)Cn2nnc(-c3ccc(C)cc3)n2)c1", "hERG current change (%, negative = inhibition) at 10uM": 16.1}, {"compound": "O=C1N[C@@H](Cc2ccccc2)C(=O)N2[C@@H]1C[C@@]1(Br)c3ccccc3N(S(=O)(=O)c3ccccc3)[C@@H]21", "hERG current change (%, negative = inhibition) at 10uM": -4.24}, {"compound": "O=C(/C=C/c1cccs1)c1ccc(N2CCOCC2)cc1", "hERG current change (%, negative = inhibition) at 10uM": 22}, {"compound": "COc1ccc(-c2nnc(SCC(=O)N3c4ccccc4Sc4ccccc43)o2)cc1", "hERG current change (%, negative = inhibition) at 10uM": 8.54}, {"compound": "CCOC(=O)c1ccc(NC(=O)c2ccc3c(c2)C(=O)N(Cc2cccnc2)C3=O)cc1", "hERG current change (%, negative = inhibition) at 10uM": 5.98}, {"compound": "CC(C)NC(=O)CCS(=O)(=O)c1ccc(Br)s1", "hERG current change (%, negative = inhibition) at 10uM": 16.1}, {"compound": "O=C(NC(=S)Nc1ccc(N2CCOCC2)cc1)c1cccc([N+](=O)[O-])c1", "hERG current change (%, negative = inhibition) at 10uM": 7.28}, {"compound": "O=C(/C=C/c1cn(-c2ccccc2)nc1-c1cccc(Cl)c1)N1CCN(c2ccccn2)CC1", "hERG current change (%, negative = inhibition) at 10uM": 5.73}, {"compound": "COCCCn1c(SCC(=O)NNC(=O)c2cccc(O)c2)nnc1-c1ccncc1", "hERG current change (%, negative = inhibition) at 10uM": 5.74}, {"compound": "COc1cc(C2C(C#N)=C(N)N(Nc3ccccc3)C3=C2C(=O)CC(C)(C)C3)ccc1OCc1ccccc1", "note": "(centres unmarked)", "hERG current change (%, negative = inhibition) at 10uM": 15.5}, {"compound": "COCCNC(=O)C(c1ccco1)N(C(=O)Cn1nnc2ccccc21)c1ccccc1C", "note": "(centres unmarked)", "hERG current change (%, negative = inhibition) at 10uM": -4.39}, {"compound": "COc1ccccc1N1CCN(C(=O)c2cc3c(=O)n4cccc(C)c4nc3s2)CC1", "hERG current change (%, negative = inhibition) at 10uM": -11.2}, {"compound": "CC(NC(=O)C[n+]1cccc(Br)c1)c1ccccc1.[Cl-]", "note": "(centres unmarked)", "hERG current change (%, negative = inhibition) at 10uM": 17.6}, {"compound": "CC(C)OC(=O)c1cccnc1N1CCN(c2cccc(Cl)c2)CC1", "hERG current change (%, negative = inhibition) at 10uM": 7.99}, {"compound": "Cc1nonc1NC(=O)OC1CCCCC1", "hERG current change (%, negative = inhibition) at 10uM": 1.97}, {"compound": "CCN(CC)CCNC(=O)c1ccc(NC(=O)c2ccc(Cl)c(S(=O)(=O)N3CCCCCC3)c2)cc1.Cl", "hERG current change (%, negative = inhibition) at 10uM": -24}, {"compound": "Cc1ccccc1-c1nc(CS(=O)(=O)CC(=O)N2CCOCC2)c(C)o1", "hERG current change (%, negative = inhibition) at 10uM": 3.45}, {"compound": "COc1ccc(-n2c(Cc3cccn3C)nnc2SCC(=O)Nc2ccccc2F)cc1", "hERG current change (%, negative = inhibition) at 10uM": -53.7}, {"compound": "COC(=O)CC1SC(=O)NC1=Nc1ccc(OC)cc1", "note": "(centres unmarked)", "hERG current change (%, negative = inhibition) at 10uM": 1.66}, {"compound": "Cc1ccc(OCC(=O)Sc2ccc(C)cc2)cc1", "hERG current change (%, negative = inhibition) at 10uM": 17.2}, {"compound": "NC(=O)NNc1cccc(Cl)n1", "hERG current change (%, negative = inhibition) at 10uM": 21.4}, {"compound": "CCCCN(C)C(=O)c1ccc(CS(=O)(=O)c2ccccc2C)o1", "hERG current change (%, negative = inhibition) at 10uM": -27.2}, {"compound": "COc1ccc(NC(=O)c2ccc(OC(=S)N(C)c3ccc(OC)cc3)cc2)cc1", "hERG current change (%, negative = inhibition) at 10uM": 13.3}, {"compound": "COc1ccc(/C(C)=N/NC(=O)c2ccc(N(C)C)cc2)cc1", "hERG current change (%, negative = inhibition) at 10uM": -11.8}, {"compound": "COCCCNC(=O)c1cc(C(=O)c2c(-c3c(Cl)cccc3Cl)noc2C)c[nH]1", "hERG current change (%, negative = inhibition) at 10uM": -3.65}, {"compound": "CCC(C)(C)n1nnnc1C(c1ccncc1)N1CCC(Cc2ccccc2)CC1", "note": "(centres unmarked)", "hERG current change (%, negative = inhibition) at 10uM": -43}, {"compound": "CCc1c(C)nc2ncnn2c1N1CCCC(C(=O)NCc2ccc3c(c2)OCO3)C1", "note": "(centres unmarked)", "hERG current change (%, negative = inhibition) at 10uM": -37.4}, {"compound": "Cc1ccc(NC(=S)NCc2ccccc2)cc1S(=O)(=O)N1CCCCC1", "hERG current change (%, negative = inhibition) at 10uM": 5.69}, {"compound": "CCOc1ccccc1C(=O)NCC(=O)OCC(=O)N1C(C)CCCC1C", "note": "(centres unmarked)", "hERG current change (%, negative = inhibition) at 10uM": -0.108}, {"compound": "CCC1=Nc2cc(C(=O)NCCCN3CCOCC3)ccc2Sc2ccc(Br)cc21", "hERG current change (%, negative = inhibition) at 10uM": 1.96}, {"compound": "Cc1noc(C)c1COC(=O)c1ccc2c(c1)S(=O)(=O)c1ccccc1C2=O", "hERG current change (%, negative = inhibition) at 10uM": -0.375}, {"compound": "O=C(NCc1cccnc1)c1sc2cc(Cl)ccc2c1Cl", "hERG current change (%, negative = inhibition) at 10uM": -55.4}, {"compound": "Cn1[nH]c(C(F)(F)F)c(C=NCc2ccc(Cl)cc2)c1=O", "hERG current change (%, negative = inhibition) at 10uM": -8.29}]}]}
